# In the BET-seq Pho4 binding data (Le et al. 2018):
# The other results are listed elsewhere or left out. The energies were worked out here from pooled read counts, against the library average; single values are noisy.
# Target: T1, Pho4 (S. cerevisiae) (UniProt P07270)
# T1 sequence: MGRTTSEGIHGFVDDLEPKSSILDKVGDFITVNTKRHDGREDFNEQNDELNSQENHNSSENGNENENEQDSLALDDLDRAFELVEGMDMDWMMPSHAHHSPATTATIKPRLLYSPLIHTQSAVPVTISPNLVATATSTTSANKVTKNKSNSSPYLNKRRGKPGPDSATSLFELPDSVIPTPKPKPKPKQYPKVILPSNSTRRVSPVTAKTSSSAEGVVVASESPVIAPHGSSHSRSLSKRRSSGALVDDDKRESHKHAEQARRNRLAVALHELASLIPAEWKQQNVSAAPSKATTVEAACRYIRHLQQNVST
# Assay: relative binding free energy (BET-seq); higher = weaker binding
# Details: reference: library average
row,Sequence,relative binding free energy [kcal/mol]
1,CGTTTCACGTGGGTAT,0.15
2,TTGTGCACGTGTGGTT,0.11
3,TATAGCACGTGTTTTC,-0.1
4,ATTCACACGTGGATTT,0.34
5,GATTACACGTGGGAGA,0.12
6,GGGCGCACGTGCGTGT,-0.22
7,AATGTCACGTGTAGGA,0.02
8,TGGGACACGTGGAAGC,0.03
9,TAGTACACGTGAGATT,0.33
10,AGGTCCACGTGATATG,0.06
11,GGTGGCACGTGTAGGA,0.05
12,AGAGACACGTGTTTAG,0.05
13,TGAAGCACGTGGGCAT,-0.18
14,GGATGCACGTGTAGTT,-0.03
15,GTGAGCACGTGCAAGG,-0.09
16,TTGTCCACGTGTTGTT,-0.05
17,GTTAGCACGTGGTTAA,-0.08
18,CCGTGCACGTGATGGG,-0.01
19,ATTGGCACGTGGTTGA,-0.13
20,CTCGTCACGTGGTTGT,0.11
21,TGGTGCACGTGGACAT,-0.03
22,GGTTGCACGTGGTATT,-0.07
23,GAAAGCACGTGTGGGC,0.02
24,GTTAGCACGTGGCATG,-0.05
25,TGCTTCACGTGAGTCG,0.4
26,TTATTCACGTGTGAAC,0.35

row,Sequence,relative binding free energy [kcal/mol]
1,ATAGGCACGTGTATTT,0.01
2,GGTTTCACGTGATAGG,0.44
3,CCGTTCACGTGGGTGG,0.18
4,GTGTCCACGTGTTGCG,0.05
5,CATGCCACGTGGGGGT,-0.32
6,TTCTACACGTGTGGGT,0.11
7,GTGGCCACGTGGGCAG,-0.12
8,AGTTTCACGTGTGCAG,0.3
9,TATTTCACGTGGTGAG,0.27
10,AAGTTCACGTGGTTTC,0.4
11,GTTGCCACGTGATTTT,0.19
12,GGGGGCACGTGGGGAG,-0.1
13,ACAGGCACGTGGTTTG,-0.31
14,TGGCGCACGTGTGTGT,-0.07
15,TCGGCCACGTGGGTTA,-0.21
16,TAAGGCACGTGCGGAA,-0.1
17,TGTTTCACGTGTCTTT,0.23
18,GGCGACACGTGGTTAT,0.07
19,TATTGCACGTGTGATT,0.1
20,GGATGCACGTGCATGT,-0.06
21,TGGCCCACGTGATGGG,0.09
22,TTCTTCACGTGGGATA,0.08
23,TACAGCACGTGATTTT,0.18
24,AATTGCACGTGAGGGA,0.16
25,AGGGTCACGTGGGGAC,0.03
26,AAGCGCACGTGTGCGG,-0.01

row,Sequence,relative binding free energy [kcal/mol]
1,GGGTCCACGTGGTTTG,0.13
2,CTAGTCACGTGGCGTG,-0.02
3,TGCGGCACGTGAGAGT,0.03
4,TGATACACGTGTTTAG,0
5,GGTCACACGTGGGTGA,-0.24
6,TGTTACACGTGTACGT,0.15
7,GGATACACGTGTGATT,0.16
8,ATAGACACGTGTATAG,-0.02
9,GATATCACGTGTTAAG,0.28
10,TGCAACACGTGTTGGG,0.02
11,TGTAACACGTGCGTTT,-0.01
12,TGAGCCACGTGGAGTT,-0.05
13,TAGTGCACGTGAGTCA,0.1
14,GTCCACACGTGGGAGG,0.1
15,CTGTACACGTGATTGG,0.15
16,TGGGGCACGTGAATAA,0.17
17,TTGTGCACGTGAGTAT,0.06
18,AGGACCACGTGTGGTA,-0.04
19,TCTGTCACGTGGGTGC,0.02
20,TGAGTCACGTGGGGGA,-0.02
21,ATTTACACGTGCGTAG,-0.06
22,GTATTCACGTGTTGAC,0.43
23,AAGATCACGTGATAGG,0.11
24,TATGTCACGTGGGCGG,-0.08
25,ATGGTCACGTGTTGTA,0.12
26,GTTTTCACGTGGGTTG,0.25

row,Sequence,relative binding free energy [kcal/mol]
1,TCGGTCACGTGTCGTG,0.18
2,AATTGCACGTGAGTGA,0.24
3,AGTGGCACGTGAGCTG,0.14
4,TTCTTCACGTGTAGGT,0.18
5,CTTAGCACGTGTTTGA,-0.16
6,GTGTTCACGTGAGGAA,0.46
7,TGGGACACGTGATTGC,0.1
8,TTGTCCACGTGATAGT,0.05
9,TGGTCCACGTGCGTTA,-0.12
10,TATTGCACGTGAATCG,0.23
11,TGGTGCACGTGGGATG,-0.1
12,TCTGACACGTGGTTGT,-0.05
13,AGGCTCACGTGGGGTT,0.11
14,AGAGACACGTGATGGG,0.09
15,GTAGTCACGTGCGTAG,0.17
16,GGGGACACGTGAAATT,0.62
17,CGTACCACGTGTGGGT,-0.07
18,GGATGCACGTGGGGGC,-0.06
19,GGGTGCACGTGTAATT,0.16
20,GTGCGCACGTGTGAAT,0.11
21,TAATCCACGTGTTGTT,0
22,GGTTTCACGTGCGTGC,0.26
23,TTAGTCACGTGAGAAT,0.26
24,AAGTCCACGTGAGGGT,0.12
25,CGGGACACGTGATTTT,0.4
26,CAATTCACGTGGTGAT,0.24

row,Sequence,relative binding free energy [kcal/mol]
1,ATTAGCACGTGTGAGA,-0.01
2,AATACCACGTGGGTGT,-0.28
3,GGTGCCACGTGTGGGT,0
4,GTGTACACGTGGTGAG,0.01
5,TGGCTCACGTGGTCTT,0.12
6,GAGTACACGTGGTATG,0.14
7,GGTTTCACGTGCGACG,0.35
8,AGAGTCACGTGCTTAT,0.14
9,GGTGGCACGTGACGTC,0.07
10,GTGATCACGTGAGGCG,0.23
11,ATGTTCACGTGTAGTC,0.16
12,TAATGCACGTGTGTCG,-0.07
13,ATAGTCACGTGGGTCA,-0.06
14,TTTGGCACGTGCTCTG,-0.1
15,CTTCGCACGTGTAGGG,0.1
16,ACGTTCACGTGTTGTT,0.25
17,GGTTCCACGTGGATAG,0.18
18,CCGGGCACGTGGCGGT,-0.29
19,AAGGTCACGTGTTAGT,0.26
20,GGTTTCACGTGGTATT,0.38
21,GCGGACACGTGGGTGT,-0.03
22,TGGAGCACGTGCTGTT,-0.14
23,GGGAGCACGTGCGGTG,-0.11
24,ATGTCCACGTGTTTGT,0.07
25,GGGTTCACGTGTTTAC,0.28
26,CTTCTCACGTGGGTTT,0.1

row,Sequence,relative binding free energy [kcal/mol]
1,CTTGGCACGTGCGGGG,-0.28
2,AGGAGCACGTGAGCGT,0.14
3,TTACTCACGTGGGGGA,-0.01
4,TCCGGCACGTGGGTTA,-0.1
5,AGTATCACGTGGCGGG,0.14
6,GTAGGCACGTGATTCA,-0.01
7,AGAGGCACGTGTTTAA,-0.15
8,TGTAGCACGTGAGTCA,0.2
9,TGCGACACGTGGTAGT,-0.06
10,CTAGGCACGTGGTCTG,-0.19
11,TATTACACGTGTGCAT,0.02
12,CTTGACACGTGGTAAT,0
13,TTGGGCACGTGGTCGC,-0.1
14,TATTTCACGTGTTCTG,0.2
15,GTTAGCACGTGGGGGT,0.01
16,CTGTGCACGTGAGAGT,0.15
17,TAGTGCACGTGTACTG,-0.01
18,ATGGCCACGTGGTGAT,-0.01
19,GATTTCACGTGTGTTG,0.36
20,CTAGGCACGTGTGCGG,-0.31
21,GAGCTCACGTGGTAGT,0.22
22,TAATGCACGTGAGGGC,0.22
23,TGTGGCACGTGGTCGC,-0.24
24,TCTATCACGTGTTATG,0.08
25,TTGGTCACGTGGTAGT,0.18
26,CGGTGCACGTGTAATG,0.03

row,Sequence,relative binding free energy [kcal/mol]
1,CGCTGCACGTGTTGTT,0
2,GGATTCACGTGAGGTA,0.47
3,CTGTTCACGTGGGGGC,0.17
4,GGGTACACGTGATAGA,0.32
5,TCTGTCACGTGGAGCA,0.3
6,GTATACACGTGGGATA,-0.12
7,ATGGTCACGTGCGAGG,0
8,AGTATCACGTGATTGG,0.24
9,TCGGTCACGTGGGCTT,0.03
10,ATGTGCACGTGGTGCA,-0.23
11,GTTGCCACGTGACTTG,0.23
12,CTTCACACGTGGGGTG,-0.11
13,GCAAGCACGTGGAGTT,0.1
14,TGTATCACGTGAGCAA,0.35
15,ATTTTCACGTGTTAAC,0.23
16,CGTCACACGTGGAGGG,0.13
17,TCAAACACGTGTTGTG,-0.01
18,ATTGACACGTGTGAGT,0.05
19,CGGTGCACGTGTTGTG,-0.04
20,TAGCCCACGTGGGGGT,-0.3
21,TTATGCACGTGTGTCG,-0.07
22,TCCGTCACGTGTGTGT,0.14
23,TTATTCACGTGAGGAT,0.41
24,TAGGCCACGTGGTGGC,-0.05
25,TGAGTCACGTGATGTC,0.12
26,GAAAGCACGTGTTGAT,0.06

row,Sequence,relative binding free energy [kcal/mol]
1,TTTGCCACGTGGTTAA,-0.22
2,TATTGCACGTGCGGAT,-0.01
3,GTAAACACGTGTGTGG,-0.09
4,GGTGGCACGTGGTGGA,-0.05
5,TTTTACACGTGTGTAG,0.03
6,GACTGCACGTGATTGT,0.25
7,TTTGTCACGTGAGAGA,0.28
8,TTAAACACGTGGAGTG,-0.01
9,ATTCTCACGTGTAATG,0.16
10,CAGGGCACGTGTAGGT,-0.12
11,GAGGGCACGTGGGCCG,-0.12
12,TAGTGCACGTGGGCGG,-0.2
13,AGTTACACGTGGAATG,0.34
14,AGGATCACGTGGGCTT,-0.01
15,GGGTGCACGTGTAGGC,0.13
16,AGATACACGTGTTGGT,-0.06
17,GTGGTCACGTGTGTCG,0.15
18,TTTGTCACGTGGGTAA,-0.03
19,TGGAGCACGTGTGGAG,-0.09
20,CGGTACACGTGCTTTG,0.15
21,TTGCTCACGTGATTTT,0.18
22,GCATTCACGTGTGGTA,0.27
23,GTGTTCACGTGGGCTG,0.16
24,TATAACACGTGATTAG,0.17
25,ATTGTCACGTGACATT,0.12
26,GGGGCCACGTGGTTTG,0.06

row,Sequence,relative binding free energy [kcal/mol]
1,TTGTGCACGTGATAAA,0.14
2,TGCTACACGTGGGGCG,-0.2
3,CGTTTCACGTGTACGG,0.18
4,TATGGCACGTGAGGCA,0.2
5,GTTATCACGTGAGTGT,0.28
6,GTTGACACGTGTCATG,-0.03
7,GGGAACACGTGTGGAG,0.24
8,TAGGGCACGTGTGAAG,-0.09
9,TGTAACACGTGTATAT,0.01
10,TGTTACACGTGTGGTG,0.14
11,AGGCGCACGTGGTCTT,-0.14
12,TAGATCACGTGGCGTG,-0.04
13,AGTTGCACGTGGATAA,0.1
14,GGTATCACGTGCCGTG,0.12
15,ACGGTCACGTGGCGGG,-0.07
16,GTATTCACGTGTAGTA,0.34
17,TGTGTCACGTGTATTT,0.18
18,AGTCACACGTGTTTAT,0.18
19,ATTGACACGTGATGAT,0.2
20,GTTTTCACGTGGGTCC,0.23
21,TGAGTCACGTGGTATT,0.1
22,TTAGGCACGTGTCCGT,-0.17
